Experimental data: article PMC12136788
This is one part of the list.

T1: UNK ZnF1-3 (human, UniProt Q9C0B0 31-174)
T1 sequence: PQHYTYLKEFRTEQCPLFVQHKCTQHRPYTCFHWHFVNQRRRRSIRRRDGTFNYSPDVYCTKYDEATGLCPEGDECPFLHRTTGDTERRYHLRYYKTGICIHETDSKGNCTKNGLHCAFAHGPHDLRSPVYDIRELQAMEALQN

B1: chr6:79679595:79679596:-_ENSG00000146247_ENST00000275034|hu_mus|FALSE|FALSE (ssRNA)
RNA: GGGAGUUCUACAGUCCGACGAUCUAUAUUCCAUCGUCUAUACUUUGCAUCAUCAAAUUGUUGUCUCAAGACUAGAAAAUCUAUGACGUCAGGCAUAUCAUGGUAUUUCAUGGUAAAUGAUCCACCGGUCAGUUUGCCAGUAUCCAACAGAGGAUUGAGCAUCA
B2: chr16:94690093:94690094:+_ENSMUSG00000040785_ENSMUST00000117648|mus_hu|mus_mus_mus_hu_True|68_108 (ssRNA)
RNA: GGGAGUUCUACAGUCCGACGAUCGGGGACUCCUGUGGGACACACAGCCUCGAUUCCAGGGGGAAAAAAAAAUAGCCGAUACUAAUUAAAAAGUGUUAAUGAUUUUUGAAAAUCAGAUUACAUCUAUAAAAGAUGAAAAGCAAACAACAGAGGAUUGAGCAUCA
B3: 64290231_64290351_1254_3pUTR_ENSG00000112245_ENST00000370650|human|control|control (ssRNA)
RNA: GGGAGUUCUACAGUCCGACGAUCACUGCAUGAUUUGGGGAAAGGUCAAUUGAUACAAAUGACAAGCACAUUUUAUAUGCUGACAGCAAGAAUCUUUUGCCAAGUAUCCAAAUAGGUUGACUGUAACCCAAAUACAGAGGUUGCCAACAGAGGAUUGAGCAUCA
B4: chr2:47389482:47389483:-_ENSG00000143933_ENST00000272298|hu_hu|FALSE|FALSE (ssRNA)
RNA: GGGAGUUCUACAGUCCGACGAUCUUCUGCAGCACUAAUAUAGCCAUUGCCAUCCUUAUCAAACACACGGAAUGCUUCUCUAAUUUCUUCUUCACUGUCUGUGUCUUUCAUUUUUCUUGCCAUCAUUGUCAGAAAUUCAGGGAACAACAGAGGAUUGAGCAUCA
B5: chr2:35037708:35037709:-_ENSMUSG00000026878_ENSMUST00000028238|mus_mus|FALSE|FALSE (ssRNA)
RNA: GGGAGUUCUACAGUCCGACGAUCUUACAAGAGUUGUUUUUUCUUUUUUCUUUUUUUAAUUAAACCCAGUAAGAUGUACAGAAGACAAGGAGGCAGUAAAAAGUACUGCUUCCAACAGACAGAGGUGAAAGGUCAAAUGAGGGGCAACAGAGGAUUGAGCAUCA
B6: chr1:174129369:174129370:-_ENSMUSG00000013698_ENSMUST00000013842|mus_hu|FALSE|FALSE (ssRNA)
RNA: GGGAGUUCUACAGUCCGACGAUCACGGGUUCUGUAGUCAACCACCAUAGUGAGUAGGUCAGGACGGCGGGAGAUCUCAAAGAUGUGCUCAAUGUAGGAGAGGUUGUCUUUGUCCAGCUUGUUGUGGCUCUCCAGGAAGCUAAACAACAGAGGAUUGAGCAUCA
B7: chr1:220369670:220369671:-_ENSG00000118873_ENST00000358951|hu_hu|FALSE|FALSE (ssRNA)
RNA: GGGAGUUCUACAGUCCGACGAUCGAAGCCAGUAAAUGGAUUGGACCCUACAGUGAUAUACUGAGACAUGGCAGGUGGACUAUUUUUAAUUGCUGCAUUAAAUCCACCUAUAUUGGAGGCAGUCUUCAUUUGAUCAAAGGGGGACAACAGAGGAUUGAGCAUCA
B8: chrX:109746815:109746816:+_ENSMUSG00000025529_ENSMUST00000071814|perfect_dup|motif|central (ssRNA)
RNA: GGGAGUUCUACAGUCCGACGAUCUGUUUUAAAGUCACAGUGCCUGCACUGAUGAAUCUUCCUACCCUUAUGGAUAUCACGGUGCUUUUUGAGCUCAGAAGGACGAUGAAAACCUUUAUCACAGACCUCACAUUUGUGAGGAAACAACAGAGGAUUGAGCAUCA
B9: chr1:60041781:60041782:+_ENSMUSG00000041040_ENSMUST00000036540|mus_hu|mus_mus_mus_hu_False|68_108 (ssRNA)
RNA: GGGAGUUCUACAGUCCGACGAUCAAGAGGAGUGAAUUAAAGUAAAUGCAGUAGUGGCAAAUUUUCUUUACUUUAGUUUCACAAAAGAAAAUCUUUAUAACCCAGUCCUAGUCUUGGACAUAGUGAAAGCUAUAAAUUCUGACUCAACAGAGGAUUGAGCAUCA
B10: chr11:77336104:77336105:-_ENSG00000074201_ENST00000525064|hu_mus|hu_hu_hu_mus_False|78_78 (ssRNA)
RNA: GGGAGUUCUACAGUCCGACGAUCCUCACACAUUGCUGUGAACAUCGCCUCCAAUGCUGAUUUAUCACUGGGCACAAAUCGAAAUUCAGAAAUGGGUUCAACAUCAUCAUUGUCUUCCUCAUCUUCAUCAGAGAGAGGUUCUUUCAACAGAGGAUUGAGCAUCA
B11: chr18:52894491:52894492:-_ENSG00000196628_ENST00000354452|hu_hu|FALSE|FALSE (ssRNA)
RNA: GGGAGUUCUACAGUCCGACGAUCAAAAAAAAAAAAUCCAUAUUUACAGUAAAAUCUUUCUUUUAAAAAAGUUAAUCAGUACUAUUUUUUUACAGGAGAAAAAAGUCUGAAACAAAUGAACAAAAGCUUACCAUAGUCACUAAACAACAGAGGAUUGAGCAUCA
B12: chr5:124911765:124911766:+_ENSMUSG00000049327_ENSMUST00000059580|mus_hu|FALSE|FALSE (ssRNA)
RNA: GGGAGUUCUACAGUCCGACGAUCGUGUCUGACAAACACAAGGCCUCGACAGCAGGUCUGGAACUUUCAACCCCAGCAGGAUGAGGGGGAAUGGGGGUGGAUGUCAGGUAAGUAAUUUCUGGUCCCACUACAAAACUUUAUUUUCAACAGAGGAUUGAGCAUCA
B13: chr19:12856456:12856457:+_ENSG00000198356_ENST00000357332|hu_mus|motif|central (ssRNA)
RNA: GGGAGUUCUACAGUCCGACGAUCCACGAUGGUCGGGAAGUUCAGGAGCCUGAGUGUAUGGCCGGUGGGUGCUGUGUCGAACACGGCCACUGAGAAGUUCAUGCCUUUCACCAGCCUCAUGACCUCAGCAUAACUCAUGGCUUCCAACAGAGGAUUGAGCAUCA
B14: chr9:24234919:24234920:-_ENSMUSG00000043067_ENSMUST00000142064|mus_mus|FALSE|FALSE (ssRNA)
RNA: GGGAGUUCUACAGUCCGACGAUCGUAAACCAACUCUCCAUGUUCAAAUUGUUGUUUUCUUGUAUGUGUCCGUUGUUUAGCUACGACACCCCGCAUAUCAUUAAAAAUCUUUCUAACAAUGGCAGCGACGGUGACCAGAACCACCAACAGAGGAUUGAGCAUCA

Target: T1, UNK ZnF1-3
Assay: nsRBNS (natural sequence RNA bind-n-seq); RBNS binding buffer (assumed for nsRBNS): 25 mM Tris pH 7.5, 150 mM KCl, 3 mM MgCl2, 0.01% Triton X-100, 500 ug/ml BSA, 20 U/ml SUPERase-In, 4 C; UNK is unkempt and MSI1 is Musashi-1; names of the RNAs are library labels; protein concentration not given here; high values mean tight binding

Question: How did the binding signal turn out when B1 was run?
Answer: The binding signal was 0.649 enrichment R.

Question: How did the binding signal turn out when B2 was run?
Answer: The binding signal was 2.96 enrichment R.

Question: B3 was tested. Which binding signal did it give?
Answer: Its binding signal is 1.34 enrichment R.

Question: For B4, which binding signal is on record?
Answer: Its binding signal is 0.791 enrichment R.

Question: B5 was tested. Which binding signal did it give?
Answer: Its binding signal is 1.37 enrichment R.

Question: Which binding signal does the source give for B6 here?
Answer: The binding signal was 1.01 enrichment R.

Question: How did the binding signal turn out when B7 was run?
Answer: Its binding signal is 1.45 enrichment R.

Question: With B8 as the binder, how does the binding signal read?
Answer: The binding signal was 0.879 enrichment R.

Question: With B9 as the binder, how does the binding signal read?
Answer: The binding signal was 0.645 enrichment R.

Question: With B10 as the binder, how does the binding signal read?
Answer: The binding signal was 0.879 enrichment R.

Question: B11 was tested. Which binding signal did it give?
Answer: The binding signal was 1.38 enrichment R.

Question: With B12 as the binder, how does the binding signal read?
Answer: The binding signal was 1.27 enrichment R.

Question: Which binding signal does the source give for B13 here?
Answer: Its binding signal is 0.533 enrichment R.

Question: B14 was tested. Which binding signal did it give?
Answer: Its binding signal is 0.819 enrichment R.
